Experimental data reported in PMC5681660, “Reduced hepatitis B and D viral entry using clinically applied drugs as novel inhibitors of the bile acid transporter NTCP” (Scientific Reports, 2017).
Counter-ions that a name gives are not always drawn. Like-named read-outs stand apart in the source and are kept apart here.

Legend:
human NTCP [1] = target: T1, human NTCP (Homo sapiens, UniProt Q14973); assay: Screening fluorescent competitive Myrcludex B-FITC binding assay (96-well, 10 µM drug)
T1 sequence (Q14973 1-349): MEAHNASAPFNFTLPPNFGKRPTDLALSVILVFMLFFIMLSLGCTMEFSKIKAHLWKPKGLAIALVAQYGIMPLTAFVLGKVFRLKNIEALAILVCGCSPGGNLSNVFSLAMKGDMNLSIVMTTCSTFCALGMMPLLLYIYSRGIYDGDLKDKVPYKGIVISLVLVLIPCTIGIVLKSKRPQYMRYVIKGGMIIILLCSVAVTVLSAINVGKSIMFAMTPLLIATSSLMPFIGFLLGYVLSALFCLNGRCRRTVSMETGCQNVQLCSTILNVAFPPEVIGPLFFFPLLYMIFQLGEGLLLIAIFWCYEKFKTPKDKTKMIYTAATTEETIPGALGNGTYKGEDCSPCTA

human NTCP [2] = target: T1, human NTCP; assay: Screening taurocholate uptake assay (96-well, [14C]taurocholate, 10 µM drug); conditions: for remaining activity at 10 µM: 10 min, read-out: %NTCP activity
[3] = Prestwick library screen, Myrcludex B-FITC binding, 10 µM drug
[4] = Prestwick library screen, [14C]taurocholate uptake, 10 µM drug
[5] = Prestwick library screen, 10 µM drug, Myrcludex B-FITC binding
[6] = Prestwick library screen, 10 µM drug, [14C]taurocholate uptake
[7] = screen, 10 µM drug, Myrcludex B-FITC binding

SMILES | remaining activity at 10 µM (human NTCP [1]; 0.5 h, read-out: %NTCP binding) | remaining activity at 10 µM (human NTCP [2]) | other results
O=C(CCNNC(=O)c1ccncc1)NCc1ccccc1 [Nialamide] | 96.2% | 96.2% | 
CNC(=C[N+](=O)[O-])NCCSCc1csc(CN(C)C)n1 [Nizatidine] | 103% | 68.1% | 
CCCN(CCC)CCc1cccc2c1CC(=O)N2 [Ropinirole HCl] | 89.1% | 113% | 
CC[C@H]1OC(=O)C[C@@H](O)[C@H](C)[C@@H](O[C@@H]2O[C@H](C)[C@@H](O[C@H]3C[C@@](C)(O)[C@@H](O)[C@H](C)O3)[C@H](N(C)C)[C@H]2O)[C@@H](CC=O)C[C@@H](C)C(=O)/C=C/C(C)=C/[C@@H]1CO[C@@H]1O[C@H](C)[C@@H](O)[C@@H](OC)[C@H]1OC [Tylosin] | 88.5% | 130% | 
CN[C@H]1CC[C@@H](c2ccc(Cl)c(Cl)c2)c2ccccc21 [Sertraline] | 80.1% | 99.9% | 
CC(C(=O)O)c1ccc(C(=O)c2ccccc2)s1 (stereo not drawn) [Tiaprofenic acid] | 84.5% | 20.9% | 
Nc1ccn([C@H]2CC[C@@H](CO)O2)c(=O)n1 [Zalcitabine] | 86.3% | 111% | 
Oc1ncnc2[nH]ncc12 [Allopurinol] | 84% | 65% | 
CC(O)(P(=O)([O-])O)P(=O)([O-])O.[Na+].[Na+] [Etidronic acid, disodium salt] |  |  | %NTCP binding (human NTCP [1]; [3]): 86.2088%; %NTCP activity (human NTCP [2]; [4]): 94.8533%
CC[N+](CC)(CC(=O)Nc1c(C)cccc1C)Cc1ccccc1 [Denatonium benzoate] | 115% | 80.1% | 
NS(=O)(=O)c1cc(C(=O)O)c(NCc2ccco2)cc1Cl [Furosemide] | 82.2% | 122% | 
Nc1nc(=S)c2ncn([C@@H]3O[C@H](CO)[C@@H](O)[C@H]3O)c2[nH]1 [Thioguanosine] | 75% | 71.7% | 
CC(=O)Nc1c(I)c(NC(C)=O)c(I)c(C(=O)O)c1I.O.O [Diatrizoic acid dihydrate] |  |  | %NTCP binding (human NTCP [1]; [3]): 85.5063%; %NTCP activity (human NTCP [2]; [4]): 93.4776%
Cc1[nH]cnc1CN1CCc2c(c3ccccc3n2C)C1=O [Alosetron hydrochloride] | 37.2% | 103% | 
COP(=O)(OC)C(O)C(Cl)(Cl)Cl (stereo not drawn) [Trichlorfon] |  | 133% | remaining activity at 10 µM (human NTCP [1]; 0.5 h, read-out: %NTCP binding, screen, 10 µM drug, Myrcludex B-FITC binding): 108%
CC1CC(OC(=O)c2ccccc2O)CC(C)(C)C1 (stereo not drawn) [Homosalate] | 80.2% | 54.6% | 
CCN(CC)C(C)CN1c2ccccc2Sc2ccccc21 (stereo not drawn) [Ethopropazine hydrochloride] | 106% | 116% | 
COc1ccc(C(=O)c2ccccc2O)c(O)c1 [Dioxybenzone] | 99% | 58.8% | 
COc1cc(NS(=O)(=O)c2ccc(N)cc2)ncn1 [Sulfamonomethoxine] | 113% | 96.6% | 
NC[C@@H]1O[C@H](O[C@H]2[C@@H](O)[C@H](O[C@@H]3[C@@H](O)[C@H](N)C[C@H](N)[C@H]3O[C@H]3O[C@H](CO)[C@@H](O)[C@H](O)[C@H]3N)O[C@@H]2CO)[C@H](N)[C@@H](O)[C@@H]1O [Paromomycin sulfate] | 92.7% | 104% | 
CC(=O)OCC(=O)[C@@]1(O)CC[C@H]2[C@@H]3CCC4=CC(=O)CC[C@]4(C)[C@H]3[C@@H](O)C[C@@]21C [Cortisol acetate] |  |  | %NTCP binding (human NTCP [1]; [3]): 118.411%; %NTCP activity (human NTCP [2]): 62.45%

SMILES | remaining activity at 10 µM (human NTCP [1]; 0.5 h, read-out: %NTCP binding) | remaining activity at 10 µM (human NTCP [2]) | other results
CC[C@@]1(O)C(=O)OCc2c1cc1n(c2=O)Cc2cc3ccccc3nc2-1 [Camptothecine (S,+)] |  |  | %NTCP binding (human NTCP [1]; [5]): 63.5163%; %NTCP activity (human NTCP [2]; [6]): 123.65%
C=C(CC)C(=O)c1ccc(OCC(=O)O)c(Cl)c1Cl [Ethacrynic acid] | 74.3% | 48.9% | 
COc1cc(C(=O)NCc2ccc(OCCN(C)C)cc2)cc(OC)c1OC [Trimethobenzamide hydrochloride] | 112% | 122% | 
COC1=C(OC)C(=O)C(CCCCCCCCCCO)=C(C)C1=O [Idebenone] | 61.5% | 59.2% | 
CCOc1ccccc1OC(c1ccccc1)C1CNCCO1.CS(=O)(=O)O (stereo not drawn) [Reboxetine mesylate] |  |  | %NTCP binding (human NTCP [1]; [3]): 83.0377%; %NTCP activity (human NTCP [2]): 110.669%
S=c1[nH]cnc2nc[nH]c12 [Mercaptopurine] | 83.9% | 124% | 
COc1cccc2c1C(=O)c1c(O)c3c(c(O)c1C2=O)C[C@@](O)(C(=O)CO)C[C@@H]3O[C@H]1C[C@H](N)[C@@H](O)[C@H](C)O1 [Epirubicin hydrochloride] | 78.6% | 87.9% | 
COc1ccccc1OCCNCC(O)COc1cccc2[nH]c3ccccc3c12 (stereo not drawn) [Carvedilol] | 59.1% | 90.3% | 
C[C@]12Cc3c[nH]nc3C[C@@H]1CC[C@@H]1[C@@H]2CC[C@@]2(C)[C@H]1CC[C@]2(C)O [Stanozolol] | 47.1% | 46.8% | 
CC[C@]12CCCN3CCc4c(n(c5ccccc45)[C@@](O)(C(=O)OC)C1)[C@@H]32 [Vincamine] | 92.6% | 40.6% | 
Nc1ccc(O)c(C(=O)O)c1 [Mesalamine] | 121% | 70.3% | 
COc1ccnc(C[S+]([O-])c2nc3ccc(OC(F)F)cc3[nH]2)c1OC (stereo not drawn) [Pantoprazole sodium] | 90% | 87.1% | 
Nc1ccc(S(=O)(=O)[N-]c2cnc3ccccc3n2)cc1.[Na+] [Sulfaquinoxaline sodium salt] |  |  | %NTCP binding (human NTCP [1]; [5]): 111.512%; %NTCP activity (human NTCP [2]; [6]): 115.286%
CC[N+]1(C)CCCC(OC(=O)C(O)(c2ccccc2)c2ccccc2)C1 (stereo not drawn) [Pipenzolate bromide] | 89% | 102% | 
COC(=O)Nc1nc2ccc(C(=O)c3ccccc3)cc2[nH]1 [Mebendazole] | 62.7% | 105% | 
COCCc1ccc(OCC(O)CNC(C)C)cc1.COCCc1ccc(OCC(O)CNC(C)C)cc1.O=C(O)C(O)C(O)C(=O)O (racemic) [Metoprolol-(+,-) (+)-tartrate salt] |  |  | %NTCP binding (human NTCP [1]; [7]): 99.6535%; %NTCP activity (human NTCP [2]): 70.9682%
CN(C)CCOC(=O)C(c1ccccc1)C1(O)CCCC1 (stereo not drawn) [Cyclopentolate hydrochloride] | 96% | 96.5% | 
C[C@]12CCC(=O)C=C1C=C[C@@H]1[C@@H]2CC[C@@]2(C)[C@H]1CC[C@@]2(O)CCC(=O)[O-].[K+] [Canrenoic acid potassium salt] |  |  | %NTCP binding (human NTCP [1]; [3]): 87.9445%; %NTCP activity (human NTCP [2]; [4]): 87.765%
O=C(O)c1cccnc1Nc1cccc(C(F)(F)F)c1 [Niflumic acid] | 91.3% | 17% | 
CC(=O)Oc1cc(C(C)C)c(OCCN(C)C)cc1C.Cl [Moxisylyte hydrochoride] |  |  | %NTCP binding (human NTCP [1]; [7]): 110.76%; %NTCP activity (human NTCP [2]): 129.723%
C[C@@H]1CC[C@H]2[C@@H](C)C(=O)O[C@@H]3O[C@@]4(C)CC[C@@H]1[C@]32OO4 [Artemisinin] | 74.9% | 61.4% | 
